Measurements published in the antibiotic and cytotoxicity screens of Wong et al. (2023).
This is one part of the list.

Assays:
HSkMC = human skeletal muscle cells; assay: cytotoxicity call (relative viability < 0.9); details: 10 µM
HepG2 = assay: cytotoxicity call (relative viability < 0.9); details: 10 µM
S. aureus RN4220 = assay: growth inhibition call (relative growth <= 0.2); details: 50 µM

O=C(c1cnccn1)N1CCC2(CCCN2)CC1
inactive: cytotoxicity call (HSkMC) | cytotoxicity call (HepG2) | growth inhibition call (S. aureus RN4220)

CCCNC(=O)N1C[C@@H]2[C@H](c3ccccc31)[C@H](CO)N2C(=O)CN1CCOCC1
inactive: cytotoxicity call (HSkMC) | cytotoxicity call (HepG2) | growth inhibition call (S. aureus RN4220)

COc1ccc(NC(=O)N(C)C[C@@H]2Oc3ccc(NS(=O)(=O)c4cn(C)cn4)cc3C(=O)N([C@@H](C)CO)C[C@@H]2C)cc1
inactive: cytotoxicity call (HSkMC) | cytotoxicity call (HepG2) | growth inhibition call (S. aureus RN4220)

C[C@H]1CCCCO[C@@H](CN(C)S(=O)(=O)c2ccc(F)cc2)[C@@H](C)CN([C@@H](C)CO)C(=O)c2cc(NC(=O)NC3CCCCC3)ccc2O1
inactive: cytotoxicity call (HSkMC) | cytotoxicity call (HepG2) | growth inhibition call (S. aureus RN4220)

COc1cccn(CC(=O)N2CCO[C@@H](CCN)C2)c1=O
inactive: cytotoxicity call (HSkMC) | cytotoxicity call (HepG2) | growth inhibition call (S. aureus RN4220)

COc1ccc(S(=O)(=O)N2C[C@H](O)COC[C@H]3O[C@@H](CC(=O)NCCN4CCCCC4)CC[C@@H]32)cc1
inactive: cytotoxicity call (HSkMC) | cytotoxicity call (HepG2) | growth inhibition call (S. aureus RN4220)

CC(C)NC(=O)N(C)C[C@@H]1Oc2c(NS(=O)(=O)c3ccc(Cl)cc3)cccc2C(=O)N([C@H](C)CO)C[C@@H]1C
inactive: cytotoxicity call (HSkMC) | cytotoxicity call (HepG2) | growth inhibition call (S. aureus RN4220)

Cc1noc(C)c1NC(=O)Nc1ccc2c(c1)CC(=O)N([C@H](C)CO)C[C@H](C)[C@@H](CN(C)C(=O)Nc1cccc3ccccc13)O2
inactive: cytotoxicity call (HSkMC) | cytotoxicity call (HepG2) | growth inhibition call (S. aureus RN4220)

C[C@@H]1CN([C@@H](C)CO)C(=O)Cc2cc(NS(C)(=O)=O)ccc2O[C@@H]1CN(C)S(=O)(=O)c1ccccc1
inactive: cytotoxicity call (HSkMC) | cytotoxicity call (HepG2) | growth inhibition call (S. aureus RN4220)

COc1ccc(NC(=O)N(C)C[C@@H]2Oc3ccc(NC(=O)Cn4cnnn4)cc3CC(=O)N([C@@H](C)CO)C[C@@H]2C)cc1
inactive: cytotoxicity call (HSkMC) | cytotoxicity call (HepG2) | growth inhibition call (S. aureus RN4220)
